Test results published in PubChem BioAssay AID686979 (National Center for Advancing Translational Sciences (NCATS), 2013).
Where “and” joins values, the source holds several entries; their conditions need not be identical. Identical values can stand only once. The whole screen tested about 420,000 compounds, of which about 50,000 (12%) were called active. The shares of active, inactive and inconclusive entries below differ from those in the screen. Calls follow the shape of the dose curve; as a rule, active = well fitted inhibition curve with a large enough effect; inconclusive = small, poorly fitted or top-dose-only effect; inactive = flat fitted curve, though single readings scatter. A potency beside an inconclusive call is a rough fit, not a confirmed value.

assay: qHTS for Inhibitors of human tyrosyl-DNA phosphodiesterase 1 (TDP1): qHTS in cells in presence of CPT; conditions: chicken DT40 Tdp1-/-;hTDP1 cells + 20 nM CPT, ATP luminescence, 48 h; activity change, negative = growth inhibition: at 46.2 µM (top of the series) unless noted; also: nearly all actives have a fitted effect of over 55% in size
In short: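 Cell growth measured by CellTiter-Glo luminescence after a minimum 48 h, 37 C compound exposure with 20 nM CPT in Tdp1-knockout DT40 cells stably expressing hTDP1, seeded 400/well; qHTS titration format.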
% is scaled to controls: 0 for no effect and ±100 for the full control effect; potency is read from the fitted curve at half-maximal effect; tags tell the direction and shape of the fitted curve.

SMILES	Potency	activity change, negative = growth inhibition
Cc1cc(C)c(C#N)c(SCC(=O)c2ccc(Cl)cc2Cl)n1	inconclusive: 25.9 µM [inhibitor, partial curve]	
COc1ccc(CCNc2ncnc3c2c(-c2ccccc2)cn3-c2ccc(F)cc2)cc1OC	active: 14.6 µM	
COc1ccccc1C(=O)NC(=O)Nc1nc(-c2ccccc2)cc(C(F)(F)F)n1	active: 14.6 µM	
CC1(C(=O)NS(=O)(=O)c2ccc(F)cc2F)CCN1C(=O)Cc1cc(F)ccc1F (stereo not given)		inactive: -11.5%
Cc1nn(-c2ccccc2)c(N2CCCC2)c1/C=C1\N=C(c2ccc(OC(C)C)cc2)OC1=O		inactive: 6.75%
COc1ccc(-c2[nH]ncc2N=Nc2cc(C)cc(C)c2)cc1	active: 0.206 µM	
CN(Cc1c(O)ccc2c1oc(=O)c1ccccc12)C1CCCCC1	inconclusive: 10 µM [inhibitor, partial curve]	
COCC(C)NC(=O)C1CCN(S(=O)(=O)c2ccc3ccccc3c2)CC1 (stereo not given)	inconclusive: 14.6 µM [inhibitor, partial curve]	
CSc1ccc(/C=C2\C=Cc3ccc([N+](=O)[O-])cc32)cc1	inconclusive: 25.1 µM [inhibitor, single point]	
Cc1ccccc1NC(=O)Cc1nc(COC(=O)CSc2ccc(F)cc2)cs1		inactive: -23%
CSc1nc(-c2ccccc2)nc(C(C)C)n1	inconclusive: 18.4 µM [inhibitor, single point]	
NC(=O)c1ccc(NC(=O)CN2C(=O)NC(c3ccccc3)(c3ccccc3)C2=O)cc1		inactive: 4.47%
Cc1ccc2oc(=O)c3cnn(CC(=O)N4CCN(c5cc(Cl)ccc5C)CC4)c3c2c1	inconclusive: 20.6 µM [inhibitor, single point]	
COc1ccc(CNC(=O)C(c2ccco2)N(Cc2cccs2)C(=O)Cc2cccs2)cc1 (stereo not given)	inconclusive: 20.6 µM [inhibitor, single point]	
COc1cc(OC)c(C(=O)Nc2ccccc2-c2ccccc2)cc1OC	inconclusive: 23.1 µM [inhibitor, single point]	
CCOc1ccccc1C(=O)N[C@H](C(=O)OCc1csc(CC(=O)Nc2ccc(C)cc2)n1)C(C)C	active: 18.4 µM	
COc1ccc2cc(C(=O)C3CCCN(C(=O)c4sc(C)nc4C)C3)ccc2c1 (stereo not given)	inconclusive: 29.1 µM [inhibitor, single point]	
CCN(CC(=O)NCc1cccs1)C(=O)c1cccc(S(=O)(=O)N(C)C)c1		inactive: -7.38%
CN1C(C(=O)Nc2ccccn2)=C(O)c2sccc2S1(=O)=O	inactive and inconclusive: 12.8 µM [inhibitor, single point]	
Cc1ccccc1C(OCCN(C)C)C1CCCCC1 (stereo not given)	inconclusive: 29.1 µM [inhibitor, single point]	
CCn1c(=O)c2cc(C(=O)N(C)c3ccc(OC)cc3OC)sc2c2ccccc21	inconclusive: 18.4 µM [inhibitor, single point]	
COc1ccc(Nc2nnc(-c3ccc(C(N)=O)cc3)c3ccccc23)cc1	inconclusive: 29.1 µM [inhibitor, single point]	

SMILES	Potency	activity change, negative = growth inhibition
COc1nnc(-c2ccc(C)c(S(=O)(=O)NC(C)(C)CO)c2)c2ccccc12	inconclusive: 29.1 µM [inhibitor, single point]	
CCC1CCCCN1C(=O)CSc1nnc(-c2ccc(OC)cc2)o1 (stereo not given)	inconclusive: 29.1 µM [inhibitor, single point]	
COc1cc(OC)cc(C(=O)NNC(=O)c2cc3ccccc3cc2O)c1	inconclusive: 14.6 µM [inhibitor, partial curve]	
Cc1cc(NC(=O)c2ccccc2)nc2c1c(=O)oc1ccccc12	inconclusive: 29.1 µM [inhibitor, single point]	
Cc1cc(C)c2[nH]c(C(=O)Nc3ccc(F)cc3Br)cc2c1		inactive: 10.4%
CC(=O)Nc1ccc(NC(=O)C(C)Sc2n[nH]c(=O)n2Cc2ccccc2)cc1 (stereo not given)		inactive: -5.62%
CC1(C)C(=O)OC(c2cc(Br)ccc2O)C(C)(C)C1=O (stereo not given)	inconclusive: 29.1 µM [inhibitor, single point]	
Cc1ccc(Nc2nc(-c3sc(C)nc3C)cs2)cc1	active: 0.92 µM	
O=C(N/N=C/c1ccc(O)cc1O)/C(=C/c1ccccc1)CCO	inconclusive: 29.1 µM [inhibitor, single point]	
Cc1ccc(C(C)C)cc1S(=O)(=O)NCc1ccccn1		inactive: -2.44%
CCOC(=O)[C@]12CCCC=C1N(Cc1ccc3c(c1)OCO3)C(=O)[C@H](CC(=O)NCc1cccs1)C2	inconclusive: 10.3 µM [inhibitor, partial curve]	
CCCc1cc(C(=O)Nc2sc(C(C)=O)c(C)c2C(=O)OCC)no1	inconclusive: 25.9 µM [inhibitor, single point]	
Cc1ccc(N2C(N)=C(C#N)C(c3ccsc3)C3=C2CC(C)(C)CC3=O)cc1 (stereo not given)	inconclusive: 29.1 µM [inhibitor, single point]	
O=C(COc1ccc(Cl)cc1)Nc1cc2c3c(c1)CC(=O)N3CCC2	active: 20.6 µM	
CCCCc1ccc(NC(=O)C(=O)NCCN2CCN(C(=O)c3ccc([N+](=O)[O-])cc3)CC2)cc1	inconclusive: 1.3 µM [inhibitor, full curve]	
CC(C)=CCc1c2c(c(O)c3c(=O)c4c(oc13)-c1cc(O)c(O)cc1OC4C=C(C)C)C=CC(C)(C)O2 (stereo not given)	inconclusive: 29.1 µM [inhibitor, single point]	
CCn1c(=N)n(CC(O)c2cccs2)c2ccccc21 (stereo not given)	inconclusive: 25.9 µM [inhibitor, single point]	
CN(Cc1ccccc1)C(=O)CSc1nc2ccsc2c(=O)n1-c1ccc(F)cc1	inconclusive: 16.4 µM [inhibitor, single point]	
O=C(/C=C/c1ccccc1)NCCS(=O)(=O)N1CCN(c2ccccc2F)CC1		inactive: -13.4%
CSc1ccc(NC(=O)N2CCN(c3nc4ccccc4s3)CC2)cc1	inconclusive: 20.6 µM [inhibitor, partial curve]	
CCOc1ccc(CCNCc2c(C(=O)O)n(Cc3ccc(C)cc3)c3cc(OC)ccc23)cc1	inconclusive: 25.9 µM [inhibitor, single point]	
COc1ccc(/C=C2/Sc3ccc(C(=O)NCCN4CCCCCC4)cc3NC2=O)cc1	active: 3.66 µM	

SMILES	Potency	activity change, negative = growth inhibition
COc1cccc(NS(=O)(=O)c2ccc3[nH]cc(C(=O)NCCc4ccccc4)c(=O)c3c2)c1	inconclusive: 16.4 µM [inhibitor, partial curve]	
COc1ccc(NC(=O)CN(c2ccccc2F)S(=O)(=O)c2ccc(C)cc2)c(OC)c1	active: 16.4 µM	
Cc1cc(C(=O)COC(=O)c2ccc(Cl)c(S(N)(=O)=O)c2)c(C)n1C1CC1	inconclusive: 23.1 µM [inhibitor, single point]	
C=CCn1cc(/C=N/Nc2nc3ccccc3[nH]2)c2ccccc21	inconclusive: 29.1 µM [inhibitor, single point]	
Cc1nnc(N/N=C\c2ccc(-c3ccccc3[N+](=O)[O-])o2)n1N	inconclusive: 5.8 µM [inhibitor, full curve, poor fit]	
CC1(NC(=O)c2cccc(S(=O)(=O)N3CCN(c4ccc(F)cc4)CC3)c2)CCS(=O)(=O)C1 (stereo not given)	inconclusive: 29.1 µM [inhibitor, single point]	
Cc1c(CNC2CCCC(C)C2C)c(C(=O)O)c(C)n1Cc1ccccc1 (stereo not given)	inconclusive: 29.1 µM [inhibitor, single point]	
CCOC(=O)c1cccc(NS(=O)(=O)c2cnc[nH]2)c1		inactive: -3%
O=c1[nH]cc(COCC(F)CCl)c(=O)[nH]1 (stereo not given)		inactive: -5.8%
Cc1cc(CNC(=O)COc2ccccc2F)c2ccccc2n1	active: 14.6 µM	
CCn1cc(C(=O)NCCCN(CC(C)C)CC(C)C)c(=O)c2cc(S(=O)(=O)N(C)C3CCCCC3)ccc21	inconclusive: 29.1 µM [inhibitor, single point] and inconclusive: 25.9 µM [inhibitor, single point]	
Cc1cc(C)cc(NC(=O)Nc2ccc3c(c2)N(C)C(=O)CS3)c1	inconclusive: 29.1 µM [inhibitor, single point]	
Cc1ccccc1C(C)NS(=O)(=O)c1ccc2c(c1)OCCO2 (stereo not given)	inconclusive: 23.1 µM [inhibitor, single point]	
COc1cc(NC(=O)CCc2nnc3ccc(NCc4ccco4)nn23)cc(OC)c1		inactive: -4.01%
O=S(=O)(c1ccccc1F)N1CCC(Oc2ccc(-n3cnnn3)cc2)CC1	inconclusive: 18.4 µM [inhibitor, single point] and inconclusive: 25.9 µM [inhibitor, single point]	
CCN(CC)C(=O)CSC1=Nc2ccccc2C2=NC(c3ccccc3)C(=O)N12 (stereo not given)		inconclusive: -30.7% [inhibitor]
CCc1ccccc1NC(=O)Cn1c(=O)n(CC2CCC(C(=O)NCCc3ccccc3)CC2)c(=O)c2ccccc21 (stereo not given)	inconclusive: 25.9 µM [inhibitor, single point]	
CCCC(=O)N=C1SC2CS(=O)(=O)CC2N1c1ccc(-c2nc3ccc(C)cc3s2)cc1 (stereo not given)	inconclusive: 29.1 µM [inhibitor, single point]	
COCC(C)NC(=O)c1ccc(-n2nc(C(F)(F)F)cc2-c2cccs2)cc1 (stereo not given)	inconclusive: 29.1 µM [inhibitor, single point]	
COc1cccc(OC)c1C(=O)NC(C)C12CC3CC(CC(C3)C1)C2 (stereo not given)	inconclusive: 29.1 µM [inhibitor, single point]	
COC(=O)c1ccc(OCC(=O)NCCC2=CCCCC2)c(OC)c1	inconclusive: 29.1 µM [inhibitor, single point]	
